{"source": "the antibiotic and cytotoxicity screens of Wong et al. (2023)", "key": {"[1]": {"test_system": "HSkMC (human skeletal muscle cells)", "experiment": "cytotoxicity call (relative viability < 0.9)", "details": "10 µM"}, "[2]": {"test_system": "HepG2", "experiment": "cytotoxicity call (relative viability < 0.9)", "details": "10 µM"}, "[3]": {"test_system": "S. aureus RN4220", "experiment": "growth inhibition call (relative growth <= 0.2)", "details": "50 µM"}}, "note": "Some of the results follow."}
{"molecule": "C[C@@H]1CN([C@@H](C)CO)C(=O)c2cc(NS(=O)(=O)c3cccs3)ccc2O[C@@H](C)CCCCO[C@H]1CN(C)C(=O)c1ccccc1", "values": [{"measurement": "cytotoxicity call", "setting": "[1]", "result": "inactive"}, {"measurement": "cytotoxicity call", "setting": "[2]", "result": "inactive"}, {"measurement": "growth inhibition call", "setting": "[3]", "result": "inactive"}]}
{"molecule": "C[C@H]1CN([C@@H](C)CO)C(=O)c2cccc(NC(=O)c3ccc(-c4nccs4)cc3)c2O[C@H]1CN(C)C(=O)Nc1cccc2ccccc12", "values": [{"measurement": "cytotoxicity call", "setting": "[1]", "result": "inactive"}, {"measurement": "cytotoxicity call", "setting": "[2]", "result": "inactive"}, {"measurement": "growth inhibition call", "setting": "[3]", "result": "inactive"}]}
{"molecule": "Cc1nc2ccccn2c(=O)c1CCN1CCC(C(=O)c2ccc(F)cc2)CC1", "values": [{"measurement": "cytotoxicity call", "setting": "[1]", "result": "inactive"}, {"measurement": "cytotoxicity call", "setting": "[2]", "result": "inactive"}, {"measurement": "growth inhibition call", "setting": "[3]", "result": "inactive"}]}
{"molecule": "CO[C@@H]1CN(C)C(=O)c2cc(NC(=O)c3ccc(F)cc3)ccc2OC[C@@H](C)N(C(=O)CN(C)C)C[C@@H]1C", "values": [{"measurement": "cytotoxicity call", "setting": "[1]", "result": "inactive"}, {"measurement": "cytotoxicity call", "setting": "[2]", "result": "inactive"}, {"measurement": "growth inhibition call", "setting": "[3]", "result": "inactive"}]}
{"molecule": "C[C@@H]1CCCCO[C@@H](CN(C)C(=O)C2CCCCC2)[C@H](C)CN([C@H](C)CO)C(=O)c2cc(NC(=O)Nc3ccc4c(c3)OCO4)ccc2O1", "values": [{"measurement": "cytotoxicity call", "setting": "[1]", "result": "inactive"}, {"measurement": "cytotoxicity call", "setting": "[2]", "result": "inactive"}, {"measurement": "growth inhibition call", "setting": "[3]", "result": "inactive"}]}
{"molecule": "C[C@H]1CN([C@@H](C)CO)S(=O)(=O)c2ccc(C#CC3(O)CCCC3)cc2O[C@@H]1CN(C)C(=O)Nc1cccc(F)c1", "values": [{"measurement": "cytotoxicity call", "setting": "[1]", "result": "active"}, {"measurement": "cytotoxicity call", "setting": "[2]", "result": "inactive"}, {"measurement": "growth inhibition call", "setting": "[3]", "result": "inactive"}]}
{"molecule": "CC(C)NC(=O)N(C)C[C@H]1Oc2cc(-c3ccccc3F)ccc2S(=O)(=O)N([C@@H](C)CO)C[C@H]1C", "values": [{"measurement": "cytotoxicity call", "setting": "[1]", "result": "inactive"}, {"measurement": "cytotoxicity call", "setting": "[2]", "result": "inactive"}, {"measurement": "growth inhibition call", "setting": "[3]", "result": "inactive"}]}
{"molecule": "C[C@H](CO)N1C[C@H](C)[C@@H](CN(C)C(=O)c2cc(-c3ccccc3)on2)OCc2cn(nn2)CCCC1=O", "values": [{"measurement": "cytotoxicity call", "setting": "[1]", "result": "inactive"}, {"measurement": "cytotoxicity call", "setting": "[2]", "result": "inactive"}, {"measurement": "growth inhibition call", "setting": "[3]", "result": "inactive"}]}
{"molecule": "Cn1c(=O)n2n(c1=O)[C@H](C1CC1)C=C1CN3[C@@H]([C@H](CCn4cc(-c5ccc(C(=O)NO)cc5)nn4)OC(=O)[C@@H]3Cc3ccccc3)[C@@H]12", "values": [{"measurement": "cytotoxicity call", "setting": "[1]", "result": "inactive"}, {"measurement": "cytotoxicity call", "setting": "[2]", "result": "inactive"}, {"measurement": "growth inhibition call", "setting": "[3]", "result": "inactive"}]}
